The campaign covered roughly 350,000 compounds. About 31,000 (8.9%) were called active. Inconclusive means that the source gave no clear call. Such entries were picked first, then a sample of the others. The call rests on the fitted dose curve; in most records, active means well fitted inhibition curve with a large enough effect; inconclusive means small, poorly fitted or top-dose-only effect; inactive means no such curve, though single readings can be large or run the other way. A potency beside an inconclusive call is a rough fit, not a confirmed value.
These compounds were tested against Histone-lysine N-methyltransferase EHMT2 (Homo sapiens) (UniProt Q96KQ7) (assay: qHTS Assay for Inhibitors of Histone Lysine Methyltransferase G9a). Settings: G9a H3K9 monomethylation, AlphaScreen, 2 h; activity, negative = inhibition: at 59 µM (top of the series) unless noted.
Sequence of UniProt Q96KQ7 (Q96KQ7 whole entry, looked up): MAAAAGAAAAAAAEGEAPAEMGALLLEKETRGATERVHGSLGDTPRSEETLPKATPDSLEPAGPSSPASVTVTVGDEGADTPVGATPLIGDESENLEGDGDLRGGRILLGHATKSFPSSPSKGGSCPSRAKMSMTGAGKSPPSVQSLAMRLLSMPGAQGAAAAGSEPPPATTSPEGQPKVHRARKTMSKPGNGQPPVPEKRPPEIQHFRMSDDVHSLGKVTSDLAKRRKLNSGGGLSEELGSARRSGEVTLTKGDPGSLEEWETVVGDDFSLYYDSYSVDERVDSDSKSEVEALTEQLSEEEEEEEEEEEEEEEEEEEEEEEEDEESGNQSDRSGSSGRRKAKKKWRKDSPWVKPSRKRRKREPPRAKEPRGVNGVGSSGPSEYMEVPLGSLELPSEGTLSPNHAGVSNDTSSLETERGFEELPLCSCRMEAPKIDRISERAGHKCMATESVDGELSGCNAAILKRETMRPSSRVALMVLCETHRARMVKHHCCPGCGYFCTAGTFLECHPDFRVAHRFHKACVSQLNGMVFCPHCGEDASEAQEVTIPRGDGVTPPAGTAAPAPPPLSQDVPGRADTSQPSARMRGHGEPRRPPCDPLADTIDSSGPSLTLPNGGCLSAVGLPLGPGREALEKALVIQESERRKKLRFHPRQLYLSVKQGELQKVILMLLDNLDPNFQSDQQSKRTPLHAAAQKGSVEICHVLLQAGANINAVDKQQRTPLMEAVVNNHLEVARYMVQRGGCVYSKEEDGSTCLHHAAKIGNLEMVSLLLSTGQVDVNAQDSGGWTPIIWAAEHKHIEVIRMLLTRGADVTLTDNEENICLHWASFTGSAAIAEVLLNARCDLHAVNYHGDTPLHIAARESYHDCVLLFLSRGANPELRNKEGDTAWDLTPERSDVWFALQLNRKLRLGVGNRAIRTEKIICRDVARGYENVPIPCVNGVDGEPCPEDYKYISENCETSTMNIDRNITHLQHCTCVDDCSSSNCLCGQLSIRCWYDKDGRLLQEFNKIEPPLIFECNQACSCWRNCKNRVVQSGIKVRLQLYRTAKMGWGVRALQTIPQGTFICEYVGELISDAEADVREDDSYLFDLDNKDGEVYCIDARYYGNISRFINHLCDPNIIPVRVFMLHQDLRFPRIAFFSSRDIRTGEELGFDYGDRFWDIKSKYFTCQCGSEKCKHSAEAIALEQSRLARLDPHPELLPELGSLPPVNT
Procedure, shortened: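 AlphaScreen read-out: biotin-H3K9 peptide (500 nM) methylation by 20 nM enzyme with 20 uM SAM, 2 h at room temperature after 15 min compound preincubation; anti-monomethyl H3K9 antibody plus donor/acceptor beads, 10 min dark.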
`CC(=O)c1cc(-c2ccccc2)n(CC(=O)NCc2ccccc2C)c1C` was tested, and the Potency was “inactive”.
In the case of `Cc1ccc(C(=O)NC(=O)CSc2ncccc2C(=O)O)cc1`, the Potency is reported as inconclusive: 44.7 µM [inhibitor, partial curve, poor fit].
With `Cc1cc2c(Nc3ccccc3)ncnc2s1` the Potency was inconclusive: 2.82 µM [inhibitor, partial curve, poor fit].
In the case of `COc1ccc(C(=O)NNC(=S)NC(=O)c2cc(-c3ccccc3)nc3ccccc23)cc1`, the Potency is reported as inconclusive: 89.1 µM [inhibitor, single point].
`CCOc1cc(C(c2c(C)[nH][nH]c2=O)c2c(C)[nH][nH]c2=O)cc([N+](=O)[O-])c1O` was tested, and the activity, negative = inhibition was inactive: 6.49% [at 0.501 µM].
With `O=C(O)c1sc2cc(C(F)(F)F)cnc2c1-c1cccs1` the Potency was inconclusive: 39.8 µM [inhibitor, partial curve].
`CCC1CCCCN1CC(=O)c1c(C)[nH]c2ccccc12` (stereo unspecified) was tested, and the Potency was inconclusive: 79.4 µM [inhibitor, partial curve, poor fit].
In the case of `CCCN1CCC(NC(=O)Nc2ccc([N+](=O)[O-])cc2)CC1`, the activity, negative = inhibition is reported as inactive: 5.45% [at 12.7 µM].
For `COCCCNC(CC(=O)Nc1ccc(OC)cc1OC)C(=O)O` (stereo unspecified), the Potency was inconclusive: 22.4 µM [inhibitor, partial curve, poor fit].
With `Cc1ccc(OCCC(=O)N2CCN(c3ccc(O)cc3)CC2)cc1` the Potency was active: 11.2 µM.
With `Cc1ccc(S(=O)(=O)N2CCC(C(=O)N[C@@H](C)C(=O)NCc3ccco3)CC2)cc1` the Potency was inconclusive: 100 µM [inhibitor, single point].
In the case of `Cc1cccc(OCCSc2nnc(-c3ccoc3C)n2C)c1`, the Potency is reported as inconclusive: 28.2 µM [inhibitor, single point].
In the case of `Cc1ccc(/C(O)=C2/C(=O)C(=O)OC2c2ccc(Cl)cc2)cc1` (stereo unspecified), the Potency is reported as inconclusive: 39.8 µM [inhibitor, single point].
For `COc1cc(Cl)ccc1OCc1cc(C(=O)N(C)C2CCOC2)no1` (stereo unspecified), the Potency was inconclusive: 89.1 µM [inhibitor, single point].
`COc1cc2c(cc1OC)CN(Cc1cccs1)CC2` was tested, and the Potency was inconclusive: 6.31 µM [inhibitor, single point].
`O=C(CCS(=O)(=O)c1ccccc1)Nc1nnc(C(F)(F)F)s1` was tested, and the Potency was active: 39.8 µM.
In the case of `CCN1CCc2c(sc(-n3cccc3)c2C(C)NC(=O)Nc2ccccc2C)C1` (stereo unspecified), the Potency is reported as inconclusive: 25.1 µM [inhibitor, single point].
With `O=C1CC(c2cccc(Cl)c2)C(n2cncn2)C(=O)C1C1NCCc2ccccc21` (stereo unspecified) the Potency was inconclusive: 39.8 µM [inhibitor, single point].
For `CC(C)c1ccc(/C=C2\CC/C(=C\C=N\N(C)C)C2=O)cc1`, the Potency was inconclusive: 3.98 µM [inhibitor, full curve, poor fit].
For `O=[N+]([O-])c1ccc(/C=N/NC(=S)Nc2ccccc2)o1`, the Potency was inconclusive: 17.8 µM [inhibitor, partial curve, poor fit].
For `COc1ccccc1CNC(=O)c1cc2ccc3ccc(C)[nH]c3c2n1`, the Potency was “inactive”.
In the case of `Cc1ccccc1CN1CCN(Cc2ccc3cccc(F)c3n2)CC1CCO` (stereo unspecified), the Potency is reported as “inactive”.
For `Cc1ccc(C(=O)NC2CCN(S(=O)(=O)c3ccc(F)cc3)CC2)cc1`, the Potency was inconclusive: 89.1 µM [inhibitor, single point].
In the case of `Cc1ccc(C(=O)CSc2nnc3c4ccccc4nc(Cc4ccccc4)n23)cc1`, the Potency is reported as “inactive”.
In the case of `CC[C@H](C)[C@H](NC(=O)OCc1ccccc1)C(=O)OCC(=O)Nc1ccc(N2CCOCC2)cc1`, the activity, negative = inhibition is reported as inactive: -22.9% [at 2.33 µM].
`Cc1ccc(/C=C/C(=O)c2ccccc2)cc1` was tested, and the activity, negative = inhibition was inactive: 1.32% [at 12.7 µM].
With `CC(Sc1nnc(Cc2ccccc2)n1C)C(=O)NC1CC1` (stereo unspecified) the Potency was inconclusive: 8.91 µM [inhibitor, single point].
In the case of `COCc1nnc(NC(=O)c2ccc(NC(C)=O)cc2)s1`, the Potency is reported as inconclusive: 39.8 µM [inhibitor, single point].
In the case of `Cc1cccc(NC(=S)NNC(=O)c2ccccc2OC(F)F)c1`, the activity, negative = inhibition is reported as inconclusive: -54% [inhibitor].
`CC(=O)C1=C(C)OC2(O)c3ccccc3C(=O)C12O` (stereo unspecified) was tested, and the Potency was inconclusive: 89.1 µM [inhibitor, single point].
With `CCOc1ccc(N2C(=O)CC(N(O)c3ccccc3)C2=O)cc1` (stereo unspecified) the Potency was inconclusive: 89.1 µM [inhibitor, single point].
`CC(C)CCNC(=O)C(CC(C)C)N(Cc1ccc2c(c1)OCO2)C(=O)c1snc(C(N)=O)c1N` (stereo unspecified) was tested, and the Potency was “inactive”.
`CCOCCCN1C(=O)C(=O)N(CC(=O)N2c3ccccc3NC(=O)CC2C)C1=O` (stereo unspecified) was tested, and the activity, negative = inhibition was inactive: -3.47% [at 2.33 µM].
In the case of `COc1ccc(Cn2c3nc4ccccc4nc3c3c(=O)n(Cc4ccco4)c(C)nc32)cc1`, the Potency is reported as inconclusive: 2.51 µM [inhibitor, partial curve, poor fit].
With `O=C(COc1ccc2c(-c3ccccc3)cc(=O)oc2c1)NCCCN1CCOCC1` the Potency was inconclusive: 1.26 µM [inhibitor, partial curve, poor fit].
In the case of `COc1ccc2nc(NNC(=O)COc3ccccc3)sc2c1`, the Potency is reported as inconclusive: 79.4 µM [inhibitor, single point].
`Cc1occc1C(=O)Nc1cccc2ccccc12` was tested, and the Potency was active: 11.2 µM.
`O=C(C1CCN(S(=O)(=O)c2ccc(Cl)cc2)CC1)N1CCC1` was tested, and the activity, negative = inhibition was inactive: 13% [at 0.501 µM].
In the case of `COc1cc2[nH]c(=S)n(C3CCCC3)c(=O)c2cc1OC`, the activity, negative = inhibition is reported as inactive: -6.1% [at 12.7 µM].
For `Cc1ccc(C(=O)C2=C(O)C(=O)N(CC3CCCO3)C2c2ccccc2F)o1` (stereo unspecified), the Potency was inconclusive: 79.4 µM [inhibitor, partial curve, poor fit].
For `Cc1nn(C)cc1S(=O)(=O)Nc1ccc2c(c1)OCCO2`, the Potency was “inactive”.
`Cc1cc(NC(=O)CN2CCN(c3ncccn3)CC2)no1` was tested, and the Potency was active: 8.91 µM.
For `O=C(Cc1ccccc1F)Nc1ccc(S(=O)(=O)Nc2ncccn2)cc1`, the Potency was inconclusive: 79.4 µM [inhibitor, single point].
`CN(CCCNC(=O)C1CCC(=O)N1Cc1ccc(F)cc1)c1ccccc1` (stereo unspecified) was tested, and the Potency was active: 79.4 µM.
In the case of `CS(=O)(=O)N1CCN(c2ccc(NC(=O)c3cccnc3Cl)cc2)CC1`, the Potency is reported as inconclusive: 2.24 µM [inhibitor, partial curve, poor fit].
For `Cc1nnc(C)c2c(C)n(-c3cccc4cccnc34)c(C)c12`, the Potency was active: 70.8 µM.
For `CCOc1ccccc1C(C(=O)NC1CCCC1)N(C(=O)c1csnn1)C1CC1` (stereo unspecified), the Potency was “inactive”.
For `COc1ccc(N(C)C(=O)Cc2c(C(=O)O)[nH]c3ccccc23)c(OC)c1`, the Potency was inconclusive: 7.08 µM [inhibitor, full curve, poor fit].
With `O=C(NCc1cccnc1)c1ccc(NS(=O)(=O)c2ccccc2)cc1` the Potency was “inactive”.
In the case of `CCOc1ccc(NC(=O)CN(C)C(=O)CCCOc2ccc(Br)cc2)cc1OCC`, the Potency is reported as inconclusive: 50.1 µM [inhibitor, partial curve].
For `CCc1nc(C)ccc1OCC(=O)O`, the activity, negative = inhibition was inactive: -28.9% [at 12.7 µM].
`Cc1cc(C)c(Cn2c3ccccc3c3cnn(CC(=O)NCC(C)c4ccccc4)c(=O)c32)c(C)c1` (stereo unspecified) was tested, and the Potency was “inactive”.
`Cc1nn(C)c(C)c1S(=O)(=O)N(CC(=O)NCCCN1CC(C)CC(C)C1)c1ccc(C(C)C)cc1` (stereo unspecified) was tested, and the Potency was inconclusive: 39.8 µM [inhibitor, partial curve, poor fit].
In the case of `COc1ccc(Cc2nnc(SCC(=O)N3CCCC3)o2)cc1`, the Potency is reported as inconclusive: 79.4 µM [inhibitor, single point].
In the case of `N#CCN(N=Nc1ccccc1)c1ccccc1`, the Potency is reported as inconclusive: 0.631 µM [inhibitor, full curve, poor fit].
`COc1ccccc1Nc1nc2c(s1)CCC2` was tested, and the Potency was active: 25.1 µM.
For `CCCN1CCN(CCCNC(=O)c2ccc(CS(=O)c3ccc(OC)cc3)o2)CC1` (stereo unspecified), the Potency was “inactive”.
In the case of `CCCN(CCC)C(=O)CSc1nnc2cc(C)c3ccccc3n12`, the Potency is reported as inconclusive: 25.1 µM [inhibitor, partial curve, poor fit].
In the case of `CCSc1nnc(NC(=O)CSc2nccn2-c2cc(C)cc(C)c2)s1`, the Potency is reported as inconclusive: 20 µM [inhibitor, full curve].
`CCOc1ccc(N2CC(C(=O)Nc3ccccc3N3CCOCC3)CC2=O)cc1` (stereo unspecified) was tested, and the Potency was inconclusive: 89.1 µM [inhibitor, partial curve, poor fit].
In the case of `CCOC(=O)c1c(Cc2cccc(Cl)c2)c[nH]c1C`, the Potency is reported as inconclusive: 79.4 µM [inhibitor, single point].
For `COc1ccc2c(c1)c(-c1csc(N)n1)c(C)n2C`, the activity, negative = inhibition was inactive: 6.99% [at 0.501 µM].
`Cc1ccc(C(=O)NCC(=O)OC(C)C(=O)Nc2ccc(N(C)C)cc2)s1` (stereo unspecified) was tested, and the Potency was active: 39.8 µM.
For `COc1ccc(/C(=C\Nc2ccc(C)c(C)c2)C(C)=O)cc1OC`, the Potency was inconclusive: 79.4 µM [inhibitor, partial curve].
For `CCn1cc(C(=O)NCc2ccc(F)cc2)c(=O)c2cc(S(=O)(=O)N(C)C)ccc21`, the Potency was “inactive”.
With `c1csc(CNc2ccc3c(c2)OCCO3)c1` the Potency was active: 3.55 µM.
In the case of `O=C(O)C1CSC2(CCN(Cc3ccccc3)CC2)N1` (stereo unspecified), the Potency is reported as active: 7.08 µM.
In the case of `C[C@@H](Oc1ccc(Oc2cnc3ccc(Cl)cc3n2)cc1)C(=O)O`, the activity, negative = inhibition is reported as inactive: 0.476% [at 12.7 µM].
In the case of `NS(=O)(=O)c1ccc(CCNc2nc(C(F)(F)F)nc3ccccc23)cc1`, the Potency is reported as active: 70.8 µM.
In the case of `Cc1ccc(-c2csc(NC(=O)CCCc3cccs3)n2)cc1`, the Potency is reported as “inactive”.
`COCCCN1CCN(C2Cc3ccccc3Sc3ccc(Cl)cc32)CC1` (stereo unspecified) was tested, and the Potency was inconclusive: 35.5 µM [inhibitor, single point].

Source: PubChem BioAssay AID504332 (National Center for Advancing Translational Sciences (NCATS), 2011)
Further: nearly all actives have a fitted effect of over 75% in size.
On the % scale 0 is the no-effect control and ±100 the full control effect; potency means the concentration at half of the fitted maximal effect; tags describe the fitted curve by direction and shape.
